# Assay results published in PubChem BioAssay AID488969 (Vanderbilt High Throughput Screening Facility, 2010).
# Whole data set: some 110,000 compounds, median “z-score” near -0.1, cut for the highest 2% near 2. This is one part of the list. The source made the active and inactive calls.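 Rule for the calls: active = z-score in the third read window above 3 or below -3; inactive = the rest.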
# Target: Metabotropic glutamate receptor 8 (Rattus norvegicus) (UniProt P70579)
# Experiment: mGluR8 Gi/Go-coupled signaling modulation – cell-based, rat, thallium flux, HTS, primary screen (AID 488969)
# Conditions: HEK293 rat mGluR8, GIRK (G protein-gated inwardly rectifying potassium channel) thallium flux, FluoZin2; at 10 µM; stronger effect = higher value; submaximal glutamate (EC20) added with thallium
# UniProt P70579, sequence (P70579 whole entry, looked up): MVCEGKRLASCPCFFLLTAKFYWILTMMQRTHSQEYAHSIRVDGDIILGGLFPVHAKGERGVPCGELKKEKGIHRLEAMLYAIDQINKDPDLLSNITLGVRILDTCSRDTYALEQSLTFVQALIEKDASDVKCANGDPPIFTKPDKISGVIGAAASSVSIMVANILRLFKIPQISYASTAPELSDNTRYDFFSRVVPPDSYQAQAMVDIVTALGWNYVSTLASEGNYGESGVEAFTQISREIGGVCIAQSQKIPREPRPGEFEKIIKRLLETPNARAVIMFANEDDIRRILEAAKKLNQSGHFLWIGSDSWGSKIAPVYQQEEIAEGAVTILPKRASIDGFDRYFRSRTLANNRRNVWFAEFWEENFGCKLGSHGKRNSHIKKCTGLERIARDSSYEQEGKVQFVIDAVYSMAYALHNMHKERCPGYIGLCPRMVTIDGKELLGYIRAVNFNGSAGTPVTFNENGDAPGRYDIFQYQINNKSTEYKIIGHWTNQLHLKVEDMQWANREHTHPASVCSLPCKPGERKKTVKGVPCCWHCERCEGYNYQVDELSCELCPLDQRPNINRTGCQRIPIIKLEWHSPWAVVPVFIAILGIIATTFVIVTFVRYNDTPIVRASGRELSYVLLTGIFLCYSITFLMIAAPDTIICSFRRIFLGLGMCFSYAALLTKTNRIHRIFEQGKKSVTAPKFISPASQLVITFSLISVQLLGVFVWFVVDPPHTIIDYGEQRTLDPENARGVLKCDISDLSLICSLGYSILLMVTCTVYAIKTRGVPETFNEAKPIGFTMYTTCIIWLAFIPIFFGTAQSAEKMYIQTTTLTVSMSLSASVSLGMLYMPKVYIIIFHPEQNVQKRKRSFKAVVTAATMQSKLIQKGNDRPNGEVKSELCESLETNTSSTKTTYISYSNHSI
row,Compound,z-score
1,CC1CCC2C(=O)N(c3ccc(NC4CCCCC4)c([N+](=O)[O-])c3)C(=O)C2C1 (stereo not drawn),0.115
2,CCC(=O)NCCc1nc2ccccc2[nH]1,-0.565
3,CC(=O)Nc1cccc(C(=O)/C=C/c2ccc(C)cc2)c1,0.501
4,Cc1ccc(C=Nc2ccccc2C(N)=O)s1,-0.296
5,O=C(Nc1nccs1)c1cc(-c2ccccc2)nn1-c1ccccc1,1.18
6,CSCCC(NC(=O)c1ccc(Cl)cc1)C(=O)OCC(=O)Nc1cc(Cl)ccc1C#N (stereo not drawn),-0.119
7,Cc1cccc(N2C(N)=C(C#N)C(C#N)(C#N)C2c2ccccc2)c1 (stereo not drawn),-0.101
8,Cc1cc(NC(=O)CCCC(=O)O)nc(C)n1,-0.119
9,COC(C(=O)Nc1ccc(S(=O)(=O)Nc2ccc(C)c(C)c2)cc1)c1ccccc1 (stereo not drawn),-0.117
10,CC(=O)N1c2ccccc2C(C)(c2ccccc2)CC1(C)C (stereo not drawn),-0.236
11,COc1ccc(NC(=O)CC#N)cc1OC,-0.0767
12,CNC(=O)Nc1cc(C(C)(C)C)no1,0.117
13,CCOc1ccc(-c2nnc(SCC(=O)N(CC)CC)n2N)cc1,0.044
14,Cc1ccc(C2CC2C(=O)NN)cc1 (stereo not drawn),-0.033
15,CC1(C(=O)O)CCC(C(=O)Nc2ccc3ccccc3c2)C1(C)C (stereo not drawn),-0.174
16,COc1ccccc1NC(=O)Cn1c(=O)sc2ccccc21,-0.0843
17,Cc1cc(C)c(C#N)c(Oc2ccccc2)n1,-1.02
18,COc1ccc2c(Cl)c(C(=O)NCCCn3ccnc3)sc2c1,-0.0695
19,COc1ccc(CCNC(=O)CSc2nnc(-c3ccc(F)cc3)c3ccccc23)cc1OC,active: -3.05
20,O=C(COC(=O)Cc1cccc(C(F)(F)F)c1)Nc1cccc2ccccc12,0.00711
21,Cc1ccc(NC(=O)C2CC(=O)NC(Nc3cccc(C)c3)=N2)cc1 (stereo not drawn),0.0251
22,Cc1cc(N2CC34C=CC(O3)C(C(=O)O)C4C2=O)no1 (stereo not drawn),-0.0216
23,O=C(O)CCCC(=O)Nc1ccc(Br)cc1C(=O)O,0.073
24,COc1ccc(OC)c(Nc2ncnc3c2cnn3-c2ccccc2)c1,-0.143

row,Compound,z-score
1,Cc1ccccc1NC1=C(Cl)C(=O)N(C2CCCCC2)C1=O,0.129
2,CCOC(=O)c1ccc(NC(=O)N2CCN(S(C)(=O)=O)CC2)cc1,0.139
3,CCCOC(=O)NC(CC)COC(=O)Nc1cc(C)ccc1C (stereo not drawn),-0.0367
4,Cc1ccc(NC(=O)/C(=C/c2cccc([N+](=O)[O-])c2)NC(=O)C2CCCCC2)cc1,-0.193
5,CCOc1cc(Br)c(C(=O)O)cc1OCC,-0.24
6,Cc1[nH]c(=O)[nH]c(=O)c1NS(=O)(=O)c1ccc2c(c1)CCCC2,-0.358
7,Cc1ccc(-n2c(SCC(N)=O)nnc2-c2ccccn2)cc1C,0.0328
8,CCCOc1ccccc1-c1nc2c([nH]1)c(=O)[nH]c(=O)n2C,-0.0733
9,CC(C)OP(=O)(OC(C)C)C(Nc1ccccn1)c1ccc(F)cc1 (stereo not drawn),-0.207
10,c1cncc(-c2cccnc2)c1,0.277
11,CC(C)NC(=O)Cn1cnc2c1c(=O)n(C)c(=O)n2C,-0.161
12,CC(C)=C1C2CCC1C1C(=O)N(c3nccs3)C(=O)C21 (stereo not drawn),-0.106
13,COc1ccc(S(=O)(=O)NCCC(=O)NCc2cccs2)cc1,-0.222
14,O=C(CCS(=O)(=O)c1ccc(Br)s1)NC1CCCCCC1,0.681
15,CSc1n[nH]c(NCc2cccs2)n1,-0.124
16,O=C(Nc1cc(S(=O)(=O)N2CCOCC2)ccc1N1CCCC1)c1cnccn1,-0.108
17,O=C(Nc1ccc2c(c1)Cc1ccccc1-2)c1ccncc1,0.177
18,COC(=O)[C@@H](NC(=O)NCc1ccc(F)cc1)C(C)C,-0.141
19,CCCNC(=O)NC(=O)COc1c(F)c(F)cc(F)c1F,0.232
20,Cc1cnc(NC(=O)CSc2nnc(C)n2N)s1,-0.271
21,COc1ccc(C=O)cc1CSc1nnc(COc2cccc3cccnc23)o1,-0.687
22,Oc1[nH]c2ccccc2c1/C=N/c1nccs1,2.09
23,NC(=O)CSc1nnnn1-c1cccc(Cl)c1,-0.301
24,CCCCC(CCC(=O)Nc1ccc(C(=O)OCC)cc1)C(=O)O (stereo not drawn),-0.529

row,Compound,z-score
1,CC(C)Cc1ccc(C#N)c(SCC(N)=O)n1,-0.397
2,CCOc1ccc(CNC(=O)CCCOc2cc(=O)n(C)c3ccccc23)cc1,0.124
3,CCOC(=O)C1CCCN(c2c(NCCN3CCCCC3CC)c(=O)c2=O)C1 (stereo not drawn),-0.0143
4,Cc1ccc(C(=O)c2cn[nH]c2-c2ccccc2O)cc1,-0.0541
5,CCC(=O)Nc1ccc(S(=O)(=O)N2CCc3ccccc3C2)cc1,-0.0809
6,O=C(c1cc(Cl)ccc1[N+](=O)[O-])n1cnc2ccccc21,-0.721
7,O=C(NCc1ccc2c(c1)OCO2)C1CCCN1C(=O)Nc1cccc(F)c1 (stereo not drawn),0.725
8,Cc1ccccc1OCc1nc2ccccc2c(=O)n1N,-0.0405
9,C=CCn1c(CCC(O)CCCCC)n[nH]c1=S (stereo not drawn),0.0214
10,CCc1cccc(CC)c1NC(=O)COC(=O)Cc1ccsc1,-0.198
11,OCC(O)CSc1nc(-c2ccccc2)nc2c1CCC2 (stereo not drawn),-0.347
12,Cc1ccc(C)c(N2CCN(CC3CC=CCC3)CC2)c1 (stereo not drawn),-0.0803
13,COc1ccccc1-c1cc2ccccc2[nH]1,0.0197
14,COc1ccccc1NC(=O)C1=C(C)Nc2nc(CCCO)nn2C1c1cccnc1 (stereo not drawn),0.955
15,CC(C)(C)n1nnnc1CN1C2CCC1CC(NC(=O)Nc1ccccc1)C2 (stereo not drawn),0.248
16,Cc1nc2ccccc2c2nc(NC(=O)Cc3ccccc3)nn12,-0.0341
17,O=C1N=C(N2CCC(Cc3ccccc3)CC2)S/C1=C/c1cn[nH]c1-c1ccccc1,-0.444
18,O=C(Nc1ccc(N2CCOCC2)cc1)c1ccc(S(=O)(=O)N2CCCCC2)cc1,0.987
19,CC(=O)c1c(C)[nH]c(C(=O)OCC(=O)Nc2cc(C(F)(F)F)ccc2N2CCOCC2)c1C,-0.308
20,COc1ccc(OC)c(NS(=O)(=O)Cc2ccccc2)c1,-0.262
21,C=CCn1c(SCC)nc2sc3c(c2c1=O)CCc1ccccc1-3,0.571
22,Cc1cc(OCc2nc(-c3ccc(NC(=O)c4cccnc4)cc3)no2)ccc1Cl,-0.0767
23,COc1ccc(S(=O)(=O)Nc2ccccc2OC)cc1C,-0.348
24,CN1CCN(c2nc(-c3cccs3)cc(C(F)(F)F)n2)CC1,0.428

row,Compound,z-score
1,CCc1cccc(C)c1NC(=O)c1cc(C)oc1C,-0.302
2,Cn1cnnc1SCC(=O)Nc1ccc2nc(SCc3cccc4ccccc34)sc2c1,0.456
3,O=c1[nH]c2ccccc2n2c(-c3ccccc3)nnc12,-1.11
4,Cc1cc(Br)ccc1NC(=O)CN1C(=O)C2C3CC(c4ccccc4)C(C3)C2C1=O (stereo not drawn),-0.06
5,CN(c1ccccc1C(=O)Nc1ccccc1C(=O)NCc1ccco1)S(C)(=O)=O,0.87
6,Clc1ccccc1CN(Cc1ccccc1)C(c1cccs1)c1nnnn1C1CCCC1 (stereo not drawn),-0.135
7,CCn1c(SCC(=O)NCCOC)nc2sc(C)c(C)c2c1=O,0.264
8,CC(=O)c1cc(F)c(N2CCN(C(=O)C(C)(C)C)CC2)cc1C,-0.123
9,CCn1c(COc2ccccc2C(N)=O)nc2ccccc21,-0.397
10,Nc1nc(SCC(=O)N2CCc3ccccc32)[nH]c(=O)c1-c1ccccc1,0.47
11,Cc1noc(C)c1S(=O)(=O)N(CC(=O)Nc1ccc2c(c1)OCO2)c1ccc(C(C)C)cc1,-0.439
12,Cc1ccc(C2CC(c3cccs3)n3nc(N)nc3N2)cc1 (stereo not drawn),0.263
13,COc1cc(C)c(CNC2CCCCC2)cc1C,0.606
14,CCOC(=O)NN1C(=O)c2ccccc2NC1c1ccccc1O (stereo not drawn),-0.0265
15,O=C(C1CCN(S(=O)(=O)c2ccc(-n3cnnn3)cc2)CC1)N1CCN(c2ccccc2)CC1,0.119
16,COC(=O)CCC/C=C1/SCC(NC(=O)c2ccccc2)C1O (stereo not drawn),0.00358
17,COC(=O)N/N=C/c1ccc(-c2cc(Cl)ccc2Cl)o1,0.653
18,COC(=O)c1ccccc1NC(=O)Cn1ccnc1,0.000174
19,COc1cccc(N2C(=O)CC(N3CCC(C(N)=O)(N4CCCCC4)CC3)C2=O)c1 (stereo not drawn),0.0589
20,Cc1nc(Oc2ccccc2)c2oc3ccccc3c2n1,-0.225
21,Cc1ccc(NC(=O)NC2CCCCC2)c(C)c1,-0.228
22,CCCCn1c(-c2ccc(Cl)cc2)nc2c(=O)n(C)c(=O)[nH]c21,active: -3.28
23,COc1ccc(S(=O)(=O)CCC(=O)NCCc2cccc(C)c2)cc1,0.00176
24,Cn1c(Cc2csc(N)n2)nnc1SCC(=O)NCc1ccccc1,0.898

row,Compound,z-score
1,C/C(=N/NC(=O)Cc1ccccc1)c1ccc(C)s1,0.0405
2,O=C1C=C(Nc2ccc(Cl)cc2)CC(c2ccccc2)C1 (stereo not drawn),-0.16
3,CC1(C)CC(=O)C(C=NCC(N)=O)=C(O)C1,-0.178
4,C=C1N(c2ccccc2)C(=O)OC1(C)C,-0.0556
5,O=C(COC(=O)c1ccccc1C(=O)c1ccccc1)NCCc1ccccc1,-0.46
6,CCSC1=C(C#N)C2(CCCC2)C(C#N)=C(N)N1,-0.525
7,COC(=O)Nc1c(C(=O)OC)cc(OC)c(OC)c1OC,-0.152
8,Cc1cc(C=C2C(=O)c3ccccc3C2=O)c(C)n1-c1ccc(Cl)cc1,0.35
9,CCOC(=O)C1CCN(C(=O)c2ccccc2Oc2ccccc2)CC1,-0.386
10,CN(C)CCCNc1oc(-c2ccc(Cl)cc2)nc1C#N,1.35
11,Cn1c(=O)c(=O)n(C)c2cc(S(=O)(=O)N3CCN(C4CCCCC4)CC3)ccc21,-0.443
12,N/C(=N\OC(=O)c1ccc(Cl)cc1)c1cccnc1,0.654
13,CSc1ncccc1C(=O)OCc1ccccc1,-0.164
14,CCC(=O)Nc1cccc(NC(=O)COc2ccc(OC)cc2)c1,0.781
15,CC(=O)OCc1nc2ccccc2s1,-0.172
16,CCCC(=O)NC(=S)Nc1cccc(C(C)=O)c1,-0.153
17,Cn1c(=O)c([N+](=O)[O-])c(NCc2ccccc2)c2ccccc21,-0.608
18,CNS(=O)(=O)c1ccc(NC(=O)c2nc3nc(C)cc(C(F)F)n3n2)cc1,-0.548
19,CC(C)c1ccc(NC(=O)C2C3C=CC4(CN(CCCN5CCOCC5)C(=O)C24)O3)cc1 (stereo not drawn),-0.269
20,CCOc1ccc(-c2nc(-c3ccncc3)no2)cc1OCC,2.12
21,Cc1nn(C)cc1C1Nc2ccccc2C(=O)N1O (stereo not drawn),-0.121
22,O=C(CCCn1cnc([N+](=O)[O-])n1)Nc1ccc(Cl)c(Cl)c1,-0.0863
